Reference: publication PMC12136788
This is one part of the list.

T1: UNK ZnF1-3 (human, UniProt Q9C0B0 31-174)
T1 sequence: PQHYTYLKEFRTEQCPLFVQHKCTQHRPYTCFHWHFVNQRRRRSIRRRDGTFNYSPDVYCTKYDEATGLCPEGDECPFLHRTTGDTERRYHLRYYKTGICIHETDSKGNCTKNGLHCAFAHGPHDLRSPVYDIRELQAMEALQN

B1: chr6:79679595:79679596:-_ENSG00000146247_ENST00000275034|hu_hu|FALSE|FALSE (ssRNA)
RNA: GGGAGUUCUACAGUCCGACGAUCUAUAUUCCAUCGCCUGUAUUUUGCAUCAUCAAAUUGUUGUCUCAAGACUAGGAAAUCUAUAACGUCAGGCAUAUCAUGGUAUUUCAUGGUAAAUGAUCCGCCAGUCAGUUUACCAGUAUCCAACAGAGGAUUGAGCAUCA
B2: chr2:179515052:179515053:+_ENSMUSG00000000305_ENSMUST00000000314|mus_hu|mus_mus_mus_hu_False|1_1 (ssRNA)
RNA: GGGAGUUCUACAGUCCGACGAUCGCUGUCCCAUGCAGUCACCGUGAACGCCACCUGCUCGGAGGGGACCUGCAGCUCCCGGGUGGCGAAGACUGUCCCAUCUGCCCCAACUUUGAAGUCCAUGCUGUUGGUCUCAUACUGCAUCAACAGAGGAUUGAGCAUCA
B3: chr4:115747634:115747635:-_ENSMUSG00000063882_ENSMUST00000078676|mus_hu|FALSE|FALSE (ssRNA)
RNA: GGGAGUUCUACAGUCCGACGAUCAGAUUCAACACGAGCAGCAACAGCGGCACCUAACCCAGUUCAGGAUCAAGAAGGACUUGUAAGGGUCACUCAGCGGAAAUCCGGCGAUCUGGCCGGAAGUGCGGCACACUCAUCGUGGUCCAACAGAGGAUUGAGCAUCA
B4: chr8:122032151:122032152:-_ENSMUSG00000031835_ENSMUST00000081381|mus_hu|FALSE|FALSE (ssRNA)
RNA: GGGAGUUCUACAGUCCGACGAUCCAAUGGUGAAAUCAAGACCUCAAAUUACAAAACAUGGUGGCAGGUGAUACUUACAAAAAUAAAGCGAAGGUCUAUGUUUUACAGAUUUGUGCAUGUUUCCUUCAAAUCUCAGUCUGUACUCAACAGAGGAUUGAGCAUCA
B5: 36102013_36107042_463_CDS_ENSG00000126067_ENST00000373237|human|control|control (ssRNA)
RNA: GGGAGUUCUACAGUCCGACGAUCCUUAAACAUCUUGUCAUGAUCGUCCUUCAUCUGGACAAUAUUGCUGGCGGCCACCCGGUCGGAGGCGACAAGAACAUAGUCGGGGCCUUGGAUACCGAUGAGGUACUCCAUGGUGGCGGACAACAGAGGAUUGAGCAUCA
B6: chr16:23109248:23109249:+_ENSMUSG00000022884_ENSMUST00000115341|mus_mus|FALSE|FALSE (ssRNA)
RNA: GGGAGUUCUACAGUCCGACGAUCAAGAGCCAAAAUUACCUUUUGGAUCUGUUGAGCCAGUUCUCUGGUGGGGGCCAAUACUAGUGCUUGGGUCUCCUUGAACUCAAUCUCCAACUGUUGCAGGAUGGAAAUAGCAAAUGUGGCCAACAGAGGAUUGAGCAUCA

Molecular target: T1, UNK ZnF1-3
Experiment: nsRBNS (natural sequence RNA bind-n-seq); RBNS binding buffer (assumed for nsRBNS): 25 mM Tris pH 7.5, 150 mM KCl, 3 mM MgCl2, 0.01% Triton X-100, 500 ug/ml BSA, 20 U/ml SUPERase-In, 4 C; UNK is unkempt and MSI1 is Musashi-1; names of the RNAs are library labels; protein concentration not given here; high values mean tight binding

Row | Binder | binding signal [enrichment R]
1 | B1 | 1.13
2 | B2 | 0.721
3 | B3 | 1.9
4 | B4 | 1.12
5 | B5 | 0.554
6 | B6 | 1.31
